Results: PubChem BioAssay AID504466 (National Center for Advancing Translational Sciences (NCATS), 2011)
Among all 330,000 compounds or so, about 4,200 (1.3%) were called active. Inconclusive means that the source gave no clear call. Such entries were picked first, then a sample of the others. Calls come from the whole dose curve; as a rule, active = well fitted activation curve with a large enough effect; inconclusive = small, poorly fitted or top-dose-only effect; inactive = no such curve, though single readings can be large or run the other way. Potencies of inconclusive entries are doubtful fits and often do not repeat.

test: qHTS screen for small molecules that induce genotoxicity in human embryonic kidney (HEK293T) cells expressing luciferase-tagged ELG1; conditions: HEK293T ELG1-luciferase reporter, luminescence, 16 h; series mostly up to 46 µM; activity change, positive = activation: at the top concentration; note: nearly all actives have a fitted effect of over 60% in size; for activity change, positive = activation: % of control where 0% means no effect
Procedure, shortened: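 Quantitative HTS format in 1536-well plates. HEK293T ELG1-luciferase reporter cells receive test compound and are incubated 16 hr at 37 °C, 5% CO2; ONE-Glo added, 30 min room temperature, then luminescence read.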
Potency is the fitted concentration of half-maximal effect; tags give direction and shape of the fitted curve.

Row | SMILES | Potency | activity change, positive = activation
1 | O=C(Nc1ncc([N+](=O)[O-])s1)c1cccs1 | inconclusive: 2.59 µM [activator, partial curve] | 
2 | C/C(=N/NC(=O)c1cc(C)[nH]n1)c1ccco1 | inconclusive: 13 µM [activator, partial curve] | 
3 | CCn1c(SCC(=O)Nc2ccc3c(c2)OCCO3)nnc1-c1cccnc1 |  | inactive: 2.12%
4 | Cc1cc(NC(=O)COc2nnc(-c3ccccc3)c3ccccc23)no1 |  | inactive: 11%
5 | Cc1ccc(N=C2NC(=O)/C(=C/c3cccn3C)S2)cc1 | active: 23.1 µM | 
6 | CC(C)(C)c1ccc(S(=O)(=O)NNC(=O)c2cc3ccccc3[nH]2)cc1 | inconclusive: 14.6 µM [activator, partial curve, poor fit] | 
7 | COc1ccc2c(c1)Cc1sc(NC(C)=O)nc1-2 | active: 8.2 µM | 
8 | COc1ccc(C2=C(N)c3ccccc3C2=O)cc1 | active: 12.6 µM | 
9 | CC1CC(C)CN(S(=O)(=O)c2ccc(C(C)(C)C)cc2)C1 (stereo not given) |  | inactive: -12%
10 | CCSc1ccccc1C(=O)Nc1ccc(S(=O)(=O)NC(C)=O)cc1 |  | inactive: -0.204%
11 | O=C(CC1NCCc2ccccc21)Nc1ccccc1 (stereo not given) | inconclusive: 25.1 µM [activator, partial curve, poor fit] | 
12 | CCCCn1c(=S)[nH]c2ccc(N3CCOCC3)cc2c1=O |  | inactive: -6.16%
13 | O=C(Nc1cnc2ccccc2c1)c1cccnc1 | active: 4.61 µM | 
14 | Cc1cccc(C(=O)Nc2sc3c(c2C#N)CCCCC3)c1 | inconclusive: 1.46 µM [activator, full curve] | 
15 | CC(=O)NCCc1cc2ccc(C)c(C)c2[nH]c1=O |  | inactive: 16.8%
16 | CCOC(=O)c1cnc2c(-c3ccccc3)c(C)nn2c1N | inconclusive: 6.51 µM [activator, partial curve] | 
17 | COc1cc(C(=S)N2CCCC2)ccc1OCc1ccccc1 | inconclusive: 20.6 µM [activator, partial curve, poor fit] | 
18 | O=C(Nc1ccc(S(=O)(=O)N2CCOCC2)cc1)c1cc([N+](=O)[O-])ccc1Cl | inconclusive: 20.6 µM [activator, partial curve, poor fit] | 
19 | Cn1c(C(=O)NCCc2c[nH]c3ccccc23)cc2sccc21 | active: 14.6 µM | 
20 | COc1ccc(C(=O)c2oc3ccccc3c2N)cc1 | active: 9.2 µM | 
21 | COc1ccc(/C=N/Nc2nc3ccccc3c(=O)[nH]2)cc1 | inconclusive: 18.4 µM [activator, single point] | 
22 | C[C@@H]1[C@H](O)C[C@@]23COC(=O)C2=CCCC3[C@@]1(C)CCC1COC(=O)C1 (stereo not given in full) | inconclusive: 23.1 µM [activator, partial curve, poor fit] | 
23 | COc1ccccc1C(=O)NNC(=O)c1cccc(C)c1 | inconclusive: 14.6 µM [activator, partial curve] | 
24 | O=C(NCc1ccco1)c1cc2ccccc2o1 |  | inactive: 7.76%
25 | CCn1c(=O)cc(SCC(=O)N2CCN(C)CC2)c2ccccc21 | inconclusive: 14.6 µM [activator, partial curve] | 

Row | SMILES | Potency | activity change, positive = activation
26 | Cc1cnc(C(=O)Nc2ccccc2F)cn1 | active: 16.4 µM | 
27 | CCS(=O)(=O)N1Cc2ccccc2CC1C(=O)Nc1nccs1 (stereo not given) | inconclusive: 18.4 µM [activator, partial curve] | 
28 | Cc1ccnc2nc(C(=O)Nc3nccs3)nn12 | inconclusive: 11.2 µM [activator, partial curve, poor fit] | 
29 | CC1=NN(C(N)=S)C(=O)C1N=Nc1ccc(Br)cc1 (stereo not given) | active: 9.2 µM | 
30 | COCCNC(=O)c1cc2oc3ccccc3c2n1C | inconclusive: 16.4 µM [activator, partial curve] | 
31 | CCCCn1nnnc1SCC(=O)NC1CCCCC1 |  | inactive: 0.486%
32 | Cc1cc(N2CCN(C3CCCC3)CC2)n2ncc(-c3ccccc3)c2n1 | inconclusive: 9.2 µM [activator, partial curve, poor fit] | 
33 | O=C(NNc1nc2c(F)cccc2s1)c1ccc(F)cc1 |  | inactive: -6.97%
34 | C/C(=N\Nc1ccccc1[N+](=O)[O-])c1ccc(N2CCOCC2)cc1 | inconclusive: 2.91 µM [activator, full curve, poor fit] | 
35 | COc1cccc(-c2c(C(=O)N/N=C/c3ccco3)nnn2-c2nonc2N)c1 |  | inactive: -0.845%
36 | Cc1cc(C)n(-c2ccc(C(=O)NC3=NCCS3)cc2)n1 | inconclusive: 5.8 µM [activator, partial curve, poor fit] | 
37 | Fc1cccc2sc(Nc3nc4cc5c(cc4s3)OCCO5)nc12 | active: 1.16 µM | 
38 | O=C(C[C@H]1C[C@H](C(=O)N2CCCCC2)[C@@]2(CCc3ccccc3)c3[nH]c4ccc(Cl)cc4c3CCN2C1=O)NCCN1CCOCC1 |  | inactive: 5.58%
39 | Cc1ccc(C(=O)Nc2ccc3c(c2)OCCO3)cc1 | active: 0.58 µM | 
40 | C=CCN(CC=C)C(=O)CN1C(=O)NC(Cc2c[nH]c3ccccc23)C1=O (stereo not given) |  | inactive: -1.03%
41 | C=CCNC(=S)NC(=O)c1ccc(C)c(Br)c1 | inconclusive: 23.1 µM [activator, partial curve, poor fit] | 
42 | Cc1ccc(NC(=O)CSc2ccc(-c3ccccn3)nn2)cc1 | inconclusive: 25.9 µM [activator, single point] | 
43 | CCc1ccc(/C=N/NC(=O)c2ccccn2)cc1 | inconclusive: 0.73 µM [activator, partial curve] | 
44 | NC(=S)N/N=C/c1ncc(C(F)(F)F)cc1Cl | inconclusive: 20.6 µM [activator, single point] | 
45 | COc1cc(Cl)c(C)cc1NC(=O)CSc1ccc(NC(C)=O)cc1 |  | inactive: -0.729%
46 | CC(C)Cn1c(C(C)NC(=O)Cc2ccccc2)nc2ccccc21 (stereo not given) | inconclusive: 8.2 µM [activator, partial curve] | 
47 | COc1cccc(C(=O)Nc2cc3c(cc2Br)OCCCO3)c1 | inconclusive: 14.6 µM [activator, partial curve] | 
48 | CC(NC(=O)c1sc2ccccc2c1Cl)C1CCCO1 (stereo not given) | inconclusive: 11.6 µM [activator, partial curve] | 
49 | CCC(=O)Nc1cccc(-c2ccc(N3CCC(C)CC3)nn2)c1 | active: 0.73 µM | 
50 | Cc1ccc(C(=O)Nc2ccn(Cc3ccc(F)cc3)n2)o1 |  | inactive: 18.5%

Row | SMILES | Potency | activity change, positive = activation
51 | O=C(Nc1ccccc1)N(C1=NCCCCS1)c1ccccc1 | inconclusive: 25.9 µM [activator, partial curve, poor fit] | 
52 | Cc1ccc2oc(C(=O)Nc3nnc(CC(C)C)s3)c(C)c2c1 | inconclusive: 20.6 µM [activator, partial curve, poor fit] | 
53 | CCC1=NN(C(=O)c2cccc([N+](=O)[O-])c2)C(O)(c2ccc(C)cc2)C1 (stereo not given) |  | inactive: -6.05%
54 | Cc1ccc2nc(NC(=O)c3ccc(Cl)s3)sc2c1 | active: 4.61 µM | 
55 | Fc1ccc2nc(Nc3nc4cc5c(cc4s3)OCO5)sc2c1 | active: 13 µM | 
56 | COc1ccccc1CC(=O)Nc1cc(C)ccn1 | inconclusive: 23.1 µM [activator, partial curve] | 
57 | CN(C)c1ccc(CNc2ccc3c(c2)ncn3C)cc1 | inconclusive: 23.1 µM [activator, single point] | 
58 | Cc1ccc(N2C(=O)[C@@H]3Cc4ccccc4CN3C2=O)cc1 | inconclusive: 16.4 µM [activator, single point] | 
59 | CCN(CC)S(=O)(=O)c1cc(C(=O)Nc2ccccc2[N+](=O)[O-])ccc1Cl | inconclusive: 10.3 µM [activator, partial curve, poor fit] | 
60 | COc1ccc(-c2nnc(N)s2)cc1 | inconclusive: 16.4 µM [activator, single point] | 
61 | CN(C)c1ccc(/C=N/N2CCN(c3ccccn3)CC2)cc1 | inconclusive: 25.9 µM [activator, partial curve, poor fit] | 
62 | CCCc1[nH]n(-c2nc3ccccc3s2)c(=O)c1C=NCCCN(CC)CC | inconclusive: 18.3 µM [activator, partial curve, poor fit] | 
63 | COc1ccc(/C=N\NC(=O)c2cc(O)c(O)c(O)c2)cc1COc1ccc(C(=O)OCC(C)C)cc1 | inconclusive: 23.1 µM [activator, partial curve, poor fit] | 
64 | Cc1ccc(N=Cc2ccc[nH]2)c(O)c1 | inconclusive: 17.8 µM [activator, single point] | 
65 | O=C(COC(=O)Cc1ccc(-c2ccccc2)cc1)NCc1ccccc1 |  | inactive: 1.76%
66 | CC(C)(C)C(=O)Nc1nc2cc3c(cc2s1)OCO3 | inconclusive: 13 µM [activator, partial curve] | 
67 | COc1cc(CNc2ccc3[nH]c(=O)[nH]c3c2)ccc1OCc1ccc(Cl)cc1 | inconclusive: 14.6 µM [activator, partial curve, poor fit] | 
68 | COc1ccccc1NC(=O)CSc1nnc(NC(=O)c2ccco2)s1 |  | inactive: 13.9%
69 | Cc1nonc1OCCNCc1c(C(=O)N(C)C)nc2ccc(Cl)cn12 | inconclusive: 32.6 µM [activator, partial curve, poor fit] | 
70 | Cc1ccc(NC(=O)c2ccccc2)s1 | inconclusive: 2.24 µM [activator, full curve, poor fit] | 
71 | COc1cccc2cc(-c3ccnc(N)n3)oc12 | inconclusive: 8.2 µM [activator, partial curve, poor fit] | 
72 | CCC1CCC(C(=O)NC(C(=O)NCCN2CCOCC2)C(C)C)CC1 (stereo not given) |  | inactive: 2.24%
73 | COc1cccc(NC(=O)COc2ccccc2)c1 | inconclusive: 14.6 µM [activator, single point] | 
74 | O=C(NCCO)c1ccc2nc(Cc3cccc(Cl)c3)oc2c1 | inconclusive: 25.9 µM [activator, partial curve, poor fit] | 
75 | COc1ccc(C(=O)OCC(=O)c2ccc3c(c2)NC(=O)CO3)cc1OC |  | inactive: -0.172%
